{
  "source": "the supplement of paper PMC12632987",
  "binders": {"B1": {"name": "GBRAP_78_6643 (protein)", "chain": "EVEELVDEAVEELDEAAKLALKLPEEERNELLDELVEALSYIDESEENGFDLEELEKALEEVEKALELVKKIDHPEAPKIKEELERAKKLLEEAIKLLKE"}, "B2": {"name": "GBRAP_52_6226 (protein)", "chain": "MEEEMRALVEEGVALVKAGRLEEAAALAREIVETMNDEELRIFIDEFARAVREAPLEDLPHYERLRELVAAAMEEAGKDEVLIDYLEARFAAAAYERLQR"}, "B3": {"name": "GBRAP_52_5967 (protein)", "chain": "MRERARELVERAAELARAGDEEGLEALLREIARTWDDEELRLLAEALAERAREGDPEEAEIALEIAIRLADVLEEEGRDPRLAADLLGLVARAAYEKELA"}, "B4": {"name": "GBRAP_160_4835 (protein)", "chain": "SEKVEEAKEFIDEEFEEMIEMMKGETPENRAAIVAVGMGEIIMELEEMGVATDELEDFIVEIEDELVETILENPDLTDEELEELLEEAREKIKEKLEEEA"}, "B5": {"name": "GBRAP_137_3631 (protein)", "chain": "ATVTIDIRHYPGVVEITVTLKDAAKAEAVKELVLDIAHEHGALAVSAEIDEDGTLTVTIWVPTERADALLDALVRRLTTELGATVVVRDLDTGEERTYTP"}, "B6": {"name": "GBRAP_52_6094 (protein)", "chain": "AEAKRQAYADALLAAALAGDVDAATAIILDMVAELSEEEVRATFRLFAEKASTLPADELERATEVFIEALDRVADETGLEELMDEMEAYLAAKAYAALQA"}, "B7": {"name": "GBRAP_125_3049 (protein)", "chain": "SLEEAIEALAALARLLGYSEEEVEELRELARRHGVKGALIALMLAEGEEELADLASQLTDEEVAEVLAAHLAWLRAHPDATAEEALAHLRALLRAALAKR"}, "B8": {"name": "GBRAP_11_2754 (protein)", "chain": "KKEELKKMAELAKKAAELIQKLLEEGVDNEELREELEKTLEELAKLTKEYGDEADKKLVEIMKELWEEALADPENAVKYWEELLAAARVLAGDYLLDYEE"}},
  "note": "The full ranking holds about 4,500 sequences; the median of “median log2 fold change of GCK-ALFA target abundance (FLAG IP / Myc IP barcode read proportion)” is about 0.078, and the lowest 2% start at about -0.6. This is one part of the list.",
  "data": [
    {"biological_target": "GABARAP, O95166", "sequence (O95166 whole entry, the tested form may be a part)": "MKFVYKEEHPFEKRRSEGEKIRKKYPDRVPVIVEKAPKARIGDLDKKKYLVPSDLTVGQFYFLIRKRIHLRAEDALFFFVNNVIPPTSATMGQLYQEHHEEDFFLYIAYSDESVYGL", "test": "median log2 fold change of GCK-ALFA target abundance (FLAG IP / Myc IP barcode read proportion) (log2 ratio); each designed protein is fused to an ALFA-tag nanobody in HEK293 cells to bring the named protein to FLAG-tagged glucokinase (GCK); Myc marks an untargeted standard; higher = target protein stabilised (more abundant)", "settings": "target protein: 3xFLAG-MCP-GCK-ALFA reporter; HEK293 landing pad (RPLP)", "summary_of_the_method": "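Binders fused to an ALFA nanobody were recombined as a library into HEK293 landing-pad cells, which were induced with 2 μg mL^−1 doxycycline and then transfected to express a FLAG-tagged target and a Myc-tagged standard. After 48 h, circular RNA barcodes recovered by anti-FLAG and anti-Myc immunoprecipitation of lysates were reverse transcribed, amplified and sequenced. Each binder's target abundance is the median log2 ratio of FLAG to Myc barcode read proportions, from barcodes present at ≥10^−7 in both replicates, binders carrying ≥3 barcodes per replicate, a 10^−6 pseudocount and pooled replicates.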", "values": [
      {"binder": "B1", "median log2 fold change": -0.174},
      {"binder": "B2", "median log2 fold change": 0.00404},
      {"binder": "B3", "median log2 fold change": -0.344},
      {"binder": "B4", "median log2 fold change": -0.539},
      {"binder": "B5", "median log2 fold change": 0.0981},
      {"binder": "B6", "median log2 fold change": -0.102},
      {"binder": "B7", "median log2 fold change": -0.288},
      {"binder": "B8", "median log2 fold change": 0.279}
    ]}
  ]
}
